Test results as given in a collection of fitness landscapes (doi:10.1126/science.1257360).
The list shows a part of the results.

B1: PhoQ; a variant is named by its letters at X, in order, P23837 (parent)
chain: MKKLLRLFFPLSLRVRFLLATAAVVLVLSLAYGMVALIGYSVSFDKTTFRLLRGESNLFYTLAKWENNKLHVELPENIDKQSPTMTLIYDENGQLLWAQRDVPWLMKMIQPDWLKSNGFHEIEADVNDTSLLLSGDHSIQQQLQEVREDDDDAEMTHSVAVNVYPATSRMPKLTIVVVDTIPVELKSSYMVWSWFIYVLSANLLLVIPLLWVAAWWSLRPIEALAKEVRELEEHNRELLNPATTRELTSLVRNLNRLLKSERERYDKYRTTLTDLTHSLKTPLXXLQXXLRSLRSEKMSVSDAEPVMLEQISRISQQIGYYLHRASMRGGTLLSRELHPVAPLLDNLTSALNKVYQRKGVNISLDISPEISFVGEQNDFVEVMGNVLDNACKYCLEFVEISARQTDEHLYIVVEDDGPGIPLSKREVIFDRGQRVDTLRPGQGVGLAVAREITEQYEGKIVAGESMLGGARMEVIFGRQHSAPKDE

Variants of: B1
Experiment: enrichment ratio after two sorts for PhoP signalling (ratio (wild type AVST 3.29)); higher = more functional
Settings: with PhoP (E. coli)

Variant	enrichment ratio
AWMR	≤ 0.25
IDMN	≤ 0.25
PTAF	≤ 0.25
KNTN	≤ 0.25
TGSE	7.38
QEGV	≤ 0.25
VNWV	≤ 0.25
KNSN	≤ 0.25
TISW	2.99
SDTR	≤ 0.25
VNRT	≤ 0.25
NWPG	≤ 0.25
DIVM	≤ 0.25
YGNL	≤ 0.25
NAFT	≤ 0.25
NCTM	≤ 0.25
NPAC	≤ 0.25
YNDM	≤ 0.25
YCYG	≤ 0.25
PIPS	≤ 0.25
AWTT	≤ 0.25
VFQM	≤ 0.25
WADF	≤ 0.25
TVPR	≤ 0.25
PAMR	≤ 0.25
SIKK	≤ 0.25

Variant	enrichment ratio
THAF	≤ 0.25
RAYT	≤ 0.25
HLDQ	≤ 0.25
HFFE	≤ 0.25
HCRW	≤ 0.25
IPEH	≤ 0.25
YDKM	≤ 0.25
PRNW	≤ 0.25
EMRI	≤ 0.25
IMVP	≤ 0.25
YFYE	≤ 0.25
PFIW	≤ 0.25
SYSG	1.01
SQMG	20.8
MQRL	≤ 0.25
RIMF	≤ 0.25
YYSA	≤ 0.25
KMFI	≤ 0.25
PMKN	≤ 0.25
IHGT	≤ 0.25
YQVA	≤ 0.25
WYVD	≤ 0.25
TTCT	12.8
TQVD	≤ 0.25
NWIH	≤ 0.25
ELKI	≤ 0.25

Variant	enrichment ratio
NGNW	≤ 0.25
YKEV	≤ 0.25
WQST	≤ 0.25
AIPM	7.17
EVDR	≤ 0.25
YRTN	≤ 0.25
WNCM	≤ 0.25
NSLM	7.81
DCTT	≤ 0.25
MTLK	≤ 0.25
NRVL	≤ 0.25
DQLV	≤ 0.25
EYDP	≤ 0.25
DFRI	≤ 0.25
ALVA	≤ 0.25
QRVM	≤ 0.25
AELE	4.35
VSCN	≤ 0.25
IAAA	≤ 0.25
YVFQ	≤ 0.25
TMGN	2.42
SIFK	0.535
SCIV	1.12
GKGN	≤ 0.25
LADM	≤ 0.25
THCE	≤ 0.25

Variant	enrichment ratio
AMHI	≤ 0.25
DTFR	≤ 0.25
YHIY	≤ 0.25
DVSQ	≤ 0.25
EDIV	≤ 0.25
KQTM	≤ 0.25
AQFE	≤ 0.25
PVQY	≤ 0.25
FFHG	≤ 0.25
VYAI	≤ 0.25
CFVW	≤ 0.25
TEYL	13
DWHT	≤ 0.25
AQID	6.46
IFCR	≤ 0.25
TQNN	10.7
GRCN	≤ 0.25
MESN	7.39
VTQT	≤ 0.25
LCYC	≤ 0.25
QFLV	≤ 0.25
LIIC	1.65
KIND	≤ 0.25
MQWE	≤ 0.25
IHDH	≤ 0.25
DGYV	≤ 0.25

Variant	enrichment ratio
FDNQ	≤ 0.25
QEVC	≤ 0.25
LDHR	≤ 0.25
YYPC	≤ 0.25
YTTV	≤ 0.25
QMDN	6.52
MGYH	≤ 0.25
VALN	6.33
GHGA	≤ 0.25
YVCH	0.383
LGED	≤ 0.25
DCPL	≤ 0.25
QKNR	≤ 0.25
HDGN	≤ 0.25
RLCL	≤ 0.25
FMVF	≤ 0.25
RANW	≤ 0.25
WEMW	≤ 0.25
PMVR	≤ 0.25
PNQC	≤ 0.25
NIAM	≤ 0.25
DFCL	≤ 0.25
ADKM	≤ 0.25
QMIM	≤ 0.25
FWCL	≤ 0.25
WESW	≤ 0.25

Variant	enrichment ratio
RLPQ	≤ 0.25
TFYL	≤ 0.25
GCFG	≤ 0.25
WWLS	≤ 0.25
MGAK	≤ 0.25
TLKC	≤ 0.25
QTFD	≤ 0.25
ACIS	2.09
SAYE	≤ 0.25
FAPS	≤ 0.25
HYKS	≤ 0.25
LHAV	≤ 0.25
SNPN	≤ 0.25
GCYK	≤ 0.25
RKRR	≤ 0.25
EGVP	≤ 0.25
SDPY	≤ 0.25
AHAI	≤ 0.25
AFQF	≤ 0.25
IWKK	≤ 0.25
FQPP	≤ 0.25
FQWG	≤ 0.25
FVQG	≤ 0.25
